Test results reported in PubChem BioAssay AID1345083 (National Center for Advancing Translational Sciences (NCATS), 2018).
Hit rate of the full screen: of about 94,000 compounds, about 6,200 (6.6%) were called active. The inconclusive results got no clear call from the source; some entries with a clear call stand among them for comparison. The call rests on the fitted dose curve; in most records, active means well fitted inhibition curve with a large enough effect; inconclusive means small, poorly fitted or top-dose-only effect; inactive means flat fitted curve, though single readings scatter. Potencies of inconclusive entries are doubtful fits and often do not repeat.
On the % scale 0 is the no-effect control and ±100 the full control effect; potency means the concentration at half of the fitted maximal effect; tags describe the fitted curve by direction and shape.

Assay: Cytotoxic Profiling in HEK 293 Cell Line of Diverse Libraries Using Quantitative High-Throughput Screening; further: nearly all actives have a fitted effect of over 60% in size
Conditions: HEK 293 viability, ATP luminescence (CellTiter-Glo), 48-72 h; activity change, negative = cytotoxicity: at 115 µM (top of the series) unless noted; series mostly up to 115 µM
Procedure, shortened: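 ATP-coupled CellTiter-Glo luminescence served as viability read-out, recorded 10 min after reagent addition at room temperature. HEK 293 cells, 250 cells/well, had been incubated with pintool-transferred compound for 48 or 72 hr at 37 degree Celsius.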
With `Cc1oc(-c2cc(F)ccc2F)nc1CN1CCN(c2ccccc2)CC1C` (stereo unspecified) the Potency was inconclusive: 79.4 µM [inhibitor, partial curve, poor fit].
In the case of `COc1ccc(C(=O)N[C@@H]2CCC[C@@H]2C(=O)NCc2ccc(C)o2)cn1`, the Potency is reported as inconclusive: 100 µM [inhibitor, single point].
With `COc1ccc(CN2CCn3c(nn(-c4ccc(F)cc4F)c3=O)C2)cc1` the Potency was inconclusive: 89.1 µM [inhibitor, single point].
For `CCCCCNc1ncnc2c1CN(c1ccc(Cl)cc1)C(=O)CN2C`, the Potency was inconclusive: 89.1 µM [inhibitor, single point].
For `Cc1noc2c(N3CCNC(=O)C3)cc(-c3cccc(C(F)(F)F)c3)nc12`, the Potency was inconclusive: 100 µM [inhibitor, partial curve, poor fit].
For `COc1ccc(NC(=O)N2CCOc3ccc(CN4CCc5ccccc5C4)cc3C2)cc1`, the Potency was inconclusive: 79.4 µM [inhibitor, partial curve].
In the case of `COc1ccc(CN(C)C2CCCc3ccccc32)cc1` (stereo unspecified), the Potency is reported as inconclusive: 126 µM [inhibitor, single point].
In the case of `COc1ccccc1C(=O)N1CCC2(CC1)CC(=O)c1ccccc1O2`, the Potency is reported as active: 112 µM.
With `O=C(Cc1cn2ccsc2n1)NC1CC(c2nnc(CO)n2C2CC2)C1` (stereo unspecified) the “activity change, negative = cytotoxicity” value was inactive: -3.94%.
In the case of `CCCCCC(=O)N1CC(=O)N(Cc2ccc(C)cc2)CC(O)C1` (stereo unspecified), the “activity change, negative = cytotoxicity” value is reported as inactive: -4.13%.
With `CC(C)n1ccnc1CN1CCCC12CCN(c1ccc(C(F)(F)F)cn1)CC2` the Potency was active: 35.5 µM.
With `O=C(C1CCCC1)N1CC2(CCN(Cc3c[nH]c4ccccc34)CC2)Cc2ccccc21` the Potency was active: 20 µM.
For `COc1ccc(CNC(=O)C[C@@H]2C[C@H]3O[C@H](CNCc4ccccc4Cl)[C@@H](O)[C@H]3O2)cc1`, the “outcome” value was “inactive”.
In the case of `Cc1nc(C)c(C(=O)NCCc2ncc(C)n2C2CCCC2)s1`, the “activity change, negative = cytotoxicity” value is reported as inactive: -27.9%.
With `c1ccc(-c2nc(CC3CCNC3)no2)cc1` (stereo unspecified) the “activity change, negative = cytotoxicity” value was inactive: -16.5%.
In the case of `O=C(NCCOc1ccccc1)c1cnc2n1CCN(CC1CCOCC1)CC2`, the Potency is reported as inconclusive: 126 µM [inhibitor, single point].
With `FC(F)(F)c1ccc(CN2CCCC3(CC(c4cccnc4)=NO3)C2)cc1` (stereo unspecified) the Potency was inconclusive: 89.1 µM [inhibitor, single point].
In the case of `COCCOCc1nc(C2CCCCN2C(=O)Nc2cccc(Cl)c2)no1` (stereo unspecified), the “activity change, negative = cytotoxicity” value is reported as inactive: -9.77%.
In the case of `CC(C)CNC(=O)c1ccc2nc(-c3cccnc3)oc2c1`, the “activity change, negative = cytotoxicity” value is reported as inactive: -10.6%.
For `C=CCN1C[C@@H]2C[C@@H](C(=O)NC)N(C(=O)CC(C)(C)C)c3cccc(c32)[S+]1(=O)[O-]`, the “activity change, negative = cytotoxicity” value was inactive: -12.5% [at 57.5 µM].
With `COc1cccc(CNC2(Cc3cc(COc4ccccc4)on3)COC2)c1` the “activity change, negative = cytotoxicity” value was inactive: -18% [at 172 µM].
For `O=C(Nc1cccc2ccccc12)N[C@H]1CO[C@H]2[C@@H]1OC[C@@H]2Nc1nccc(-c2cccs2)n1`, the Potency was inconclusive: 50.1 µM [inhibitor, partial curve, poor fit].
For `O=C(NC1CCCC1)NC1CCN(c2ccc3nnc(C4CC4)n3n2)C1` (stereo unspecified), the “activity change, negative = cytotoxicity” value was inactive: -4.85%.
In the case of `COc1ccc(NC(=O)c2cnc3c(c2)N(c2ccccc2OC)CCC3)cn1`, the Potency is reported as inconclusive: 14.1 µM [inhibitor, full curve, poor fit].
In the case of `CCC(CC)n1c(=O)n(Cc2ccc(C(=O)N(C)C)o2)c2cc(C(=O)O)cnc21`, the “activity change, negative = cytotoxicity” value is reported as inactive: -8.63%.
With `CC1CCCN(c2ncnc3c2CN(c2cccnc2)C(=O)CN3C)C1` (stereo unspecified) the “activity change, negative = cytotoxicity” value was inactive: -23.7%.
With `O=C(Cc1ccc(Cl)cc1)NC1CCN(CCn2nc3n(c2=O)CCCC3)C1` (stereo unspecified) the “outcome” value was “inactive”.
With `COc1ccc(-c2c(C(=O)N3CCN(C(C)=O)CC3)nc3sccn23)cc1` the “outcome” value was “inactive”.
In the case of `Cc1ncsc1C(=O)N1CCC2(CC1)OC(=O)N(Cc1ccccc1)C2(C)c1cccnc1` (stereo unspecified), the “outcome” value is reported as “inactive”.
For `Cn1c(CN2CCCCC2)nnc1C1CCCN(C(=O)c2cocn2)C1` (stereo unspecified), the “activity change, negative = cytotoxicity” value was inactive: 4.94%.
With `CCC1=C(C(=O)OC)C(c2ccccc2)N2C(CC(=O)NCc3cccc(F)c3)=CSC2=N1` (stereo unspecified) the Potency was inconclusive: 39.8 µM [inhibitor, full curve, poor fit].
With `O=C(Nc1nccs1)[C@@H]1C[C@@H](c2ccc(F)cc2)N(CCOc2ccccc2)C1` the Potency was inconclusive: 22.4 µM [inhibitor, full curve, poor fit].
With `CC1(CCCCc2ccccc2)COc2ccc(C(=O)N3CCNC(=O)C3)cc2N1` (stereo unspecified) the Potency was inconclusive: 100 µM [inhibitor, partial curve, poor fit].
For `COc1ccc(OC)c(S(=O)(=O)N2CCCCCCNC(=O)CC2)c1`, the “activity change, negative = cytotoxicity” value was inactive: -7.42%.
With `COc1ccccc1C(=O)N1CCn2c(nn(-c3cccc(Cl)c3)c2=O)C1` the Potency was inconclusive: 50.1 µM [inhibitor, partial curve, poor fit].
In the case of `COc1ccccc1C(=O)N1CC(Oc2ccc(-c3nc(-c4ccccc4)no3)cc2)C1`, the Potency is reported as inconclusive: 22.4 µM [inhibitor, full curve, poor fit].
For `CCOC(=O)C(Cc1cc(N2CCN(S(=O)(=O)c3c(Cl)cccc3Cl)CC2)ccc1Cl)OC` (stereo unspecified), the Potency was inconclusive: 35.5 µM [inhibitor, full curve].
In the case of `CC(C)(C)c1ccc(C(=O)N[C@H]2CC(C)(C)[C@@H]3C[C@@](C)(O)CC[C@]23CCC(=O)N2CCCC2)cc1`, the Potency is reported as inconclusive: 79.4 µM [inhibitor, partial curve].
In the case of `O=C(CCn1ccc(=O)[nH]c1=O)N1CCN(Cc2ccccc2)CC(O)C1` (stereo unspecified), the “activity change, negative = cytotoxicity” value is reported as inactive: -0.212%.
In the case of `CCC(c1cccs1)N1C(=O)[C@H]2CN(S(=O)(=O)c3ccccc3Cl)C[C@H]2C1=O` (stereo partly specified), the “activity change, negative = cytotoxicity” value is reported as inactive: -39.6%.
For `CN1Cc2ncnc(N3CCCCC3)c2CN(c2ccccc2)C1=O`, the “activity change, negative = cytotoxicity” value was inactive: -7.24% [at 172 µM].
In the case of `COc1ccc(OCC2(C)COc3ccc(C(=O)NCc4ccco4)cc3N2)cc1` (stereo unspecified), the Potency is reported as inconclusive: 50.1 µM [inhibitor, partial curve, poor fit].
In the case of `CN(c1cc(=O)c2ccnc(-c3ccccc3Oc3ccccc3)c2o1)C1CCOCC1`, the “activity change, negative = cytotoxicity” value is reported as inactive: -28.8% [at 172 µM].
For `O=C(Nc1ccccc1)N1Cc2[nH]cnc2C[C@H]1c1nc(-c2ccc3ccccc3c2)no1`, the “activity change, negative = cytotoxicity” value was inactive: -2.98%.
In the case of `CCCCC1CCC(C(=O)NCC2CCN(c3cnn(C)c(=O)c3)C2)CC1` (stereo unspecified), the Potency is reported as inconclusive: 63.1 µM [inhibitor, partial curve, poor fit].
In the case of `CN(C)c1cccc(C(=O)N2CCN(C(=O)c3nnn4c3COC(c3ccc(Cl)cc3)C4)CC2)c1` (stereo unspecified), the Potency is reported as inconclusive: 50.1 µM [inhibitor, partial curve, poor fit].
